According to patent US9284335B2, “Substituted pyrido[3,2-e][1,2,4]triazolo[1,5-c]pyrimidines, pyrido[2,3-e][1,2,4]triazolo[1,5-c]pyrimidines and/or [1,2,4]triazolo[1,5-c]pteridines for treatment of central nervous system diseases and disorders” (DART NEUROSCIENCE (CAYMAN) LTD., priority 2012, dated 2016):

Molecular target: full-length recombinant NH-terminal GST tagged human PDE1b enzyme (Homo sapiens, UniProt Q01064)
Experiment: PDE1b inhibitory assay (IMAP TR-FRET)
Assay type: biochemical
Settings: negative log of half-maximal molar inhibitory concentration; FAM-cAMP 200 nM; reported as bins; read-out: PDE1b (pEC50) (converted)

| Compound | EC50 [nM] |
| --- | --- |
| COc1ccc(Cn2c(=O)n3ncnc3c3cc(CN4CCOCC4(C)C)cnc32)cc1 [Example 38, 9-((3,3-Dimethylmorpholino)methyl)-6-(4-methoxybenzyl)pyrido[3,2-e][1,2,4]triazolo[1,5-c]pyrimidin-5(6H)-one] | 100 to 1000 |
| COc1ccc(Cn2c(=O)n3ncnc3c3cc(CN4CCOC(C)(C)C4)cnc32)cc1 [Example 39, 9-((2,2-Dimethylmorpholino)methyl)-6-(4-methoxybenzyl)pyrido[3,2-e][1,2,4]triazolo[1,5-c]pyrimidin-5(6H)-one] | 100 to 1000 |
| CCC1CN(Cc2cnc3c(c2)c2ncnn2c(=O)n3Cc2ccc(OC)cc2)CCO1 (centres unmarked) [Example 40, 9-((2-Ethylmorpholino)methyl)-6-(4-methoxybenzyl)pyrido[3,2-e][1,2,4]triazolo[1,5-c]pyrimidin-5(6H)-one] | < 100 |
| COc1ccc(Cn2c(=O)n3ncnc3c3cc(CN4CC(C)OCC4C)cnc32)cc1 (centres unmarked) [Example 41, 9-((2,5-Dimethylmorpholino)methyl)-6-(4-methoxybenzyl)pyrido[3,2-e][1,2,4]triazolo[1,5-c]pyrimidin-5(6H)-one] | < 100 |
| COc1ccc(Cn2c(=O)n3ncnc3c3cc(CN4CC(F)(F)OC(F)(F)C4)cnc32)cc1 [Example 42, 6-(4-Methoxybenzyl)-9-((2,2,6,6-tetrafluoromorpholino)methyl)pyrido[3,2-e][1,2,4]triazolo[1,5-c]pyrimidin-5(6H)-one] | 100 to 1000 |
| COc1ccc(Cn2c(=O)n3ncnc3c3cc(CN4CC5CCC(C4)O5)cnc32)cc1 [Example 43, 9-(8-Oxa-3-azabicyclo[3.2.1]octan-3-ylmethyl)-6-(4-methoxybenzyl)pyrido[3,2-e][1,2,4]triazolo[1,5-c]pyrimidin-5(6H)-one] | 100 to 1000 |
| COc1ccc(Cn2c(=O)n3ncnc3c3cc(CN4CCC5(CCOCC5)N4C)cnc32)cc1 [Example 44, 6-(4-Methoxybenzyl)-9-((1-methyl-8-oxa-1,2-diazaspiro[4.5]decan-2-yl)methyl)pyrido[3,2-e][1,2,4]triazolo[1,5-c]pyrimidin-5(6H)-one] | < 100 |
| COc1ccc(Cn2c(=O)n3ncnc3c3cc(CN4CCOC(C)C4)cnc32)cc1 (centres unmarked) [Example 45, 6-(4-Methoxybenzyl)-9-((2-methylmorpholino)methyl)pyrido[3,2-e][1,2,4]triazolo[1,5-c]pyrimidin-5(6H)-one] | < 100 |
| COc1ccc(Cn2c(=O)n3ncnc3c3cc(CN4CCOCC4C)cnc32)cc1 (centres unmarked) [Example 46, 6-(4-Methoxybenzyl)-9-((3-methylmorpholino)methyl)pyrido[3,2-e][1,2,4]triazolo[1,5-c]pyrimidin-5(6H)-one] | 100 to 1000 |
| COc1ccc(Cn2c(=O)n3ncnc3c3nc(CN4C[C@@H](C)O[C@@H](C)C4)cnc32)cc1 [Example 47, 9-(((2S,6R)-2,6-Dimethylmorpholino)methyl)-6-(4-methoxybenzyl)-[1,2,4]triazolo[1,5-c]pteridin-5(6H)-one] | 100 to 1000 |
| COc1ccc(Cn2c(=O)n3ncnc3c3cc(CN4CCCN(C)CC4)cnc32)cc1 [Example 48, 6-(4-Methoxybenzyl)-9-((4-methyl-1,4-diazepan-1-yl)methyl)pyrido[3,2-e][1,2,4]triazolo[1,5-c]pyrimidin-5(6H)-one] | 1000 to 10000 |
| COc1ccc(Cn2c(=O)n3ncnc3c3cc(CN4CCCOCC4)cnc32)cc1 [Example 49, 9-((1,4-Oxazepan-4-yl)methyl)-6-(4-methoxybenzyl)pyrido[3,2-e][1,2,4]triazolo[1,5-c]pyrimidin-5(6H)-one] | 100 to 1000 |
| COc1ccc(Cn2c(=O)n3ncnc3c3cc(CN4CCCN(C(C)=O)CC4)cnc32)cc1 [Example 50, 9-((4-Acetyl-1,4-diazepan-1-yl)methyl)-6-(4-methoxybenzyl)pyrido[3,2-e][1,2,4]triazolo[1,5-c]pyrimidin-5(6H)-one] | 100 to 1000 |
| COc1ccc(Cn2c(=O)n3ncnc3c3cc(CN(C)C4CCCCC4)cnc32)cc1 [Example 51, 9-((Cyclohexyl(methyl)amino)methyl)-6-(4-methoxybenzyl)pyrido[3,2-e][1,2,4]triazolo[1,5-c]pyrimidin-5(6H)-one] | 1000 to 10000 |
| COc1ccc(Cn2c(=O)n3ncnc3c3cc(CN4CCC(OC)CC4)cnc32)cc1 [Example 52] | 100 to 1000 |
| COc1ccc(Cn2c(=O)n3ncnc3c3cc(CN(C)C4CCOCC4)cnc32)cc1 [Example 53, 6-(4-Methoxybenzyl)-9-((methyl(tetrahydro-2H-pyran-4-yl)amino)methyl)pyrido[3,2-e][1,2,4]triazolo[1,5-c]pyrimidin-5(6H)-one] | 1000 to 10000 |
| COCCN1CCN(Cc2cnc3c(c2)c2ncnn2c(=O)n3Cc2ccc(OC)cc2)CC1 [Example 54, 6-(4-Methoxybenzyl)-9-((4-(2-methoxyethyl)piperazin-1-yl)methyl)pyrido[3,2-e][1,2,4]triazolo[1,5-c]pyrimidin-5(6H)-one] | 1000 to 10000 |
| COCCN(Cc1cnc2c(c1)c1ncnn1c(=O)n2Cc1ccc(OC)cc1)C(C)C [Example 55, 9-((Isopropyl(2-methoxyethyl)amino)methyl)-6-(4-methoxybenzyl)pyrido[3,2-e][1,2,4]triazolo[1,5-c]pyrimidin-5(6H)-one] | 100 to 1000 |

| Compound | EC50 [nM] |
| --- | --- |
| COc1ccc(Cn2c(=O)n3ncnc3c3ncc(CN4CCN(C)CC4)cc32)cc1 [Example 56] | 1000 to 10000 |
| COc1ccc(Cn2c(=O)n3ncnc3c3ncc(CN4CCOCC4)cc32)cc1 [Example 57, 6-(4-Methoxybenzyl)-8-(morpholinomethyl)pyrido[2,3-e][1,2,4]triazolo[1,5-c]pyrimidin-5(6H)-one] | 1000 to 10000 |
| COc1ccc(Cn2c(=O)n3ncnc3c3ncc(CN4CCCCC4)cc32)cc1 [Example 58, 6-(4-Methoxybenzyl)-8-(piperidin-1-ylmethyl)pyrido[2,3-e][1,2,4]triazolo[1,5-c]pyrimidin-5(6H)-one] | 1000 to 10000 |
| COc1ccc(Cn2c(=O)n3ncnc3c3ncc(CN4CCSCC4)cc32)cc1 [Example 59, 6-(4-Methoxybenzyl)-8-(thiomorpholinomethyl)pyrido[2,3-e][1,2,4]triazolo[1,5-c]pyrimidin-5(6H)-one] | 1000 to 10000 |
| COc1ccc(Cn2c(=O)n3ncnc3c3ncc(CN4C[C@@H](C)O[C@@H](C)C4)cc32)cc1 [Example 60, 8-(((2S,6R)-2,6-Dimethylmorpholino)methyl)-6-(4-methoxybenzyl)pyrido[2,3-e][1,2,4]triazolo[1,5-c]pyrimidin-5(6H)-one] | 1000 to 10000 |
| COCCN(C)Cc1cnc2c(c1)c1ncnn1c(=O)n2Cc1ccc(OC)cc1 [Example 61] | 100 to 1000 |
| COc1ccc(Cn2c(=O)n3ncnc3c3cc(CN4CCN5C(=O)OCC5C4)cnc32)cc1 (centres unmarked) [Example 62, 7-((6-(4-Methoxybenzyl)-5-oxo-5,6-dihydropyrido[3,2-e][1,2,4]triazolo[1,5-c]pyrimidin-9-yl)methyl)tetrahydro-1H-oxazolo[3,4-a]pyrazin-3(5H)-one] | < 100 |
| COc1ccc(Cn2c(=O)n3ncnc3c3cc(CN4C[C@H](C)OC[C@@H]4C)cnc32)cc1 [Example 63, 9-(((2S,5S)-2,5-Dimethylmorpholino)methyl)-6-(4-methoxybenzyl)pyrido[3,2-e][1,2,4]triazolo[1,5-c]pyrimidin-5(6H)-one] | < 100 |
| COc1ccc(Cn2c(=O)n3ncnc3c3cc(CN4C[C@@H](C)OC[C@H]4C)cnc32)cc1 [Example 64, 9-(((2R,5R)-2,5-Dimethylmorpholino)methyl)-6-(4-methoxybenzyl)pyrido[3,2-e][1,2,4]triazolo[1,5-c]pyrimidin-5(6H)-one] | 100 to 1000 |
| COc1ccc(Cn2c(=O)n3ncnc3c3cc(CN4CCNCC4)cnc32)cc1 [Example 65, 6-(4-Methoxybenzyl)-9-(piperazin-1-ylmethyl)pyrido[3,2-e][1,2,4]triazolo[1,5-c]pyrimidin-5(6H)-one] | 1000 to 10000 |
| COc1ccc(Cn2c(=O)n3ncnc3c3cc(CN4C[C@@H](C)N[C@@H](C)C4)cnc32)cc1 [Example 66, 9-(((3S,5R)-3,5-Dimethylpiperazin-1-yl)methyl)-6-(4-methoxybenzyl)pyrido[3,2-e][1,2,4]triazolo[1,5-c]pyrimidin-5(6H)-one] | 1000 to 10000 |
| COc1ccc(Cn2c(=O)n3ncnc3c3cc(CN4CCN(CC5CCOC5)CC4)cnc32)cc1 (centres unmarked) [Example 67, 6-(4-Methoxybenzyl)-9-((4-((THF-3-yl)methyl)piperazin-1-yl)methyl)pyrido[3,2-e][1,2,4]triazolo[1,5-c]pyrimidin-5(6H)-one] | 1000 to 10000 |
| COc1ccc(Cn2c(=O)n3ncnc3c3cc(CN4CCN(S(C)(=O)=O)CC4)cnc32)cc1 [Example 68, 6-(4-Methoxybenzyl)-9-((4-(methylsulfonyl)piperazin-1-yl)methyl)pyrido[3,2-e][1,2,4]triazolo[1,5-c]pyrimidin-5(6H)-one] | 100 to 1000 |
| COc1ccc(Cn2c(=O)n3ncnc3c3cc(CN4CCN(S(=O)(=O)N(C)C)CC4)cnc32)cc1 [Example 69, 4-((6-(4-Methoxybenzyl)-5-oxo-5,6-dihydropyrido[3,2-e][1,2,4]triazolo[1,5-c]pyrimidin-9-yl)methyl)-N,N-dimethylpiperazine-1-sulfonamide] | < 100 |
| COc1ccc(Cn2c(=O)n3ncnc3c3cc(CN4CCN(C(=O)C(F)(F)F)CC4)cnc32)cc1 [Example 70, 6-(4-Methoxybenzyl)-9-((4-(2,2,2-trifluoroacetyl)piperazin-1-yl)methyl)pyrido[3,2-e][1,2,4]triazolo[1,5-c]pyrimidin-5(6H)-one] | 100 to 1000 |
| COc1ccc(Cn2c(=O)n3ncnc3c3cc(CN4CCN(C(=O)C5CCOC5)CC4)cnc32)cc1 (centres unmarked) [Example 71, 6-(4-Methoxybenzyl)-9-((4-(THF-3-carbonyl)piperazin-1-yl)methyl)pyrido[3,2-e][1,2,4]triazolo[1,5-c]pyrimidin-5(6H)-one] | 100 to 1000 |
| COc1ccc(Cn2c(=O)n3ncnc3c3ccc(CN4C[C@@H](C)O[C@@H](C)C4)nc32)cc1 [Example 73, 8-(((2S,6R)-2,6-Dimethylmorpholino)methyl)-6-(4-methoxybenzyl)pyrido[3,2-e][1,2,4]triazolo[1,5-c]pyrimidin-5(6H)-one] | 100 to 1000 |
